Row | melting point [°C] | Structure (SMILES)
1 | -148 | C=CCC=C [1,4-pentadiene]
2 | -106 | C#CCCC [1-pentyne]
3 | -109 | CC#CCC [2-pentyne]
4 | -148 | C=CCC=C [Penta-1,4-diene]
